Laboratory results reported in PMC9574860, “Chemical Toolkit for PARK7: Potent, Selective, and High-Throughput” (Journal of Medicinal Chemistry, 2022).
Among all 7,900 compounds or so, about 400 (5.1%) showed an effect of 50% or more. Some of the results follow.

Target: Parkinson's disease protein 7 (PARK7/DJ1) (human, UniProt Q99497)
Assay: primary screen, percent inhibition; read as competition with a fluorescent probe by fluorescence polarization; higher = more effect of the substance
Settings: 100 µM
Experimental: The screen was conducted using the conditions as described above in 1536-well plates (Corning 3724) with a reaction volume of 8 μL per well. The compound library containing 7887 covalent fragments was purchased at Enamine Ltd. and received as 100 mM DMSO stocks in 384 well LDV Echo plates (Labcyte LP-0200). Stock solutions of 0.26 μM PARK7 and 80 nM JYQ-107 were prepared. Using a Labcyte Echo550 acoustic dispenser, 8 nL of the DMSO stock solution of the library compounds was transferred from the source plates into the empty 1536-well screening plates to obtain a 100 μM final compound concentration. Next, PARK7 (6 μL, final concentration 0.2 μM) was dispensed using a Biotek MultiflowFX liquid dispenser and incubated for 2 h, followed by dispensing the probe JYQ-107 (2 μL, final concentration 20 nM). After 2 h incubation, the FP signal was recorded on a BMG Labtech PHERAstar plate reader (λex/em 480/520 nm). The relative loss of FP signal compared with reference controls was used to calculate the remaining enzyme activity.

Parkinson's disease protein 7 (PARK7/DJ1), sequence (Q99497 whole entry, looked up): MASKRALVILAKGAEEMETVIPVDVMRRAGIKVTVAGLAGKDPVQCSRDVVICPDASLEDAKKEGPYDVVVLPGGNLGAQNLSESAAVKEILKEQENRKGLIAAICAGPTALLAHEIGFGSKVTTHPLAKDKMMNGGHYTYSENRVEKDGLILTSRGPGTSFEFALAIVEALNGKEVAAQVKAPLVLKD

SMILES	Inhibition % [%]
C=CCN(Cc1cccs1)C(=O)CCl	12.2
O=C(CCl)Nc1nnc(-c2ccccc2)o1	8.76
Cc1cc(Cl)c(B2OC(C)(C)C(C)(C)O2)cc1C	17.7
CC1CC(N2CCOC(c3nccs3)C2)C(=O)O1 (stereo not shown)	7.23
N#Cc1nccn1CC1CCC(F)(F)CC1	13.8
CCCOc1ccc(Cl)cc1S(=O)(=O)n1cccn1	5.91
Cn1c(=O)c2c(ncn2CCS(=O)(=O)F)n(C)c1=O	7.95
c1cc2c(cc1C1CO1)OCCO2 (stereo not shown)	5.75
CC1(C)OB(c2cc(Cn3cccn3)ccc2F)OC1(C)C	5.6
C=CC(=O)N1CCOCC1c1noc(C)n1 (stereo not shown)	7.75
O=C1NC(c2ccc(F)cc2)C12CCC2 (stereo not shown)	6.95
C=CC(=O)N1CCOC(c2ccsc2)C1 (stereo not shown)	12.2
Cc1ccc(Cl)c(NC(=O)CCl)c1Cl	4.19
COCc1cccnc1C#N	2.34
C=CC(=O)N1CCC2(CCSCC2)CC1	5.26
CNCc1n[nH]c(=O)o1.Cl	8.56
COc1cccc(OC(=O)N2CCOCC2)c1	9.05
C=CC(=O)N1CC2COCC(C1)O2	8.25
N#CC(=Cc1cccs1)C(=O)Nc1nccs1	8.67
COc1ccnc(NC(=O)c2cccnc2S)c1	12.9
Cc1cc(C)cc(N(CCC#N)C(=O)CCl)c1	9.52
Cc1ccccc1-c1noc(=O)n1CC(=O)N1CCCC1	2.07
COC(=O)C1CC(S(=O)(=O)F)CN1C(=O)C1CC1C (stereo not shown)	13.7
C=CC(=O)Nc1cc2c(cc1Cl)OCCO2	4.65
COCCCS(=O)(=O)N1CCC(Cl)CC1	7.37
CCC1(CNS(=O)(=O)C=Cc2ccccc2)CCOCC1	6.07

SMILES	Inhibition % [%]
O=C(NCC1(CCO)CCOC1)c1cccnc1S (stereo not shown)	0.877
O=C(CCl)NC(=O)Nc1ccc2c(c1)OCCO2	7.05
C=CC(=O)NCC1CCN(c2ccncc2)CC1	15.3
Cc1cccc(OC(=O)N2CCOCC2)c1	13.3
C=CC(=O)N1CCCC(NC(C)=O)C1 (stereo not shown)	8.6
C=CC(=O)N1CC=C(c2ccc(OC)cc2)C1	1.78
C=CC(=O)NC1CCc2nc(C)nn2C1 (stereo not shown)	12.2
ClCCOc1ccccc1	4.27
CC1(C)OB(c2cnc3occc3c2)OC1(C)C	5.49
COc1ccccc1NC(=O)C(C#N)=Cc1ccco1	3.38
ClCCCc1cccnc1	7.37
Cc1cnc(=S)[nH]c1	8.44
O=C1CN=C(S)N1CC1CCCO1 (stereo not shown)	4.73
CN1CC(=O)N(CCCl)C1=O	7.13
CNC(=O)C(C#N)=Cc1cc(C)n(CCC(C)C)c1C	0.301
CN(Cc1ccccc1OC(F)(F)F)C(=O)n1ccnc1	4.13
C=CC(=O)N1CCC(S(=O)(=O)NC(C)C)C1 (stereo not shown)	7.14
Cc1ccc(-n2nc(C)cc2NC(=O)CCl)cc1.Cl	26.9
SCCc1c[nH]c2ccccc12	20.7
OB(O)c1ccc(Cn2cccn2)c(F)c1	-0.275
C=CC(=O)NC1CCOCC1C (stereo not shown)	-3.2
Sc1nc2ccccc2nc1S	8.25
COc1ncc(B2OC(C)(C)C(C)(C)O2)cn1	4.41
Cc1ccc(C)c(OCCCn2cnc(C#N)n2)c1	2.57
CC1(C)OB(c2ccc(N)nc2)OC1(C)C	9.29
C=CC(=O)NC1(c2ccc(F)cn2)CC1	8.51

SMILES	Inhibition % [%]
O=C(CCl)C1CCC(F)(F)CC1	96.8
C=CC(=O)Nc1ccc2c(n1)OCCO2	1.66
C1COC2(CCC3(CC2)CO3)O1	4.9
Cc1nnc(SC2CC(C)OC2=O)n1-c1ccccc1 (stereo not shown)	6.93
O=C(Nc1ccccc1)N1CCC(C2OCCO2)CC1	11.2
C=CC(=O)N1CCN(S(=O)(=O)c2nnc[nH]2)CC1	4.36
Cn1cc(C=C2N=C(c3ccccc3)OC2=O)cn1	3.97
O=C(CCl)NC(=O)c1cccs1	23.4
Cc1cccc2c(C#N)nccc12	-0.133
O=C(CCl)NCc1cccc(NC(=O)C2CC2)c1	11.4
O=C(CCl)N1CCN(C(=O)c2cccs2)CC1	40.3
O=C1OCCC1Sc1nc2ccccc2s1 (stereo not shown)	13.4
CN(C#N)Cc1ccccc1	62.8
COc1cccc(CNC(=O)n2ccnc2)c1	95.1
COc1cc(S(=O)(=O)n2cccn2)c(C)cc1C	5.05
CCOc1ccc(C(C)C)cc1S(=O)(=O)n1cnc(C)c1	6.97
C=CC(=O)Nc1cccc(C#N)c1	4.68
C=CC(=O)NCc1cccc(OC(C)(C)C)n1	4.11
Cc1ccc(SC2CCOC2=O)cc1 (stereo not shown)	0.89
CC1(C)OB(c2ccc(S(N)(=O)=O)cc2)OC1(C)C	26.8
CC1CN(c2ccc(C#N)nc2)CC(c2ccsc2)O1 (stereo not shown)	10.3
C=CC(=O)N1CC23CCCCC2(COC3)C1 (stereo not shown)	8.4
CN(Cc1cc(Br)cs1)C(=O)CCl	42.9
Cl.O=C(CCl)N1CCN(Cc2cccs2)CC1	3.64
O=C(O)[C@H]1CCCN(C(=O)C=CC2CC2)C1	9.02
OB(O)c1ccc(-c2ccccc2F)cc1	0.486

SMILES	Inhibition % [%]
C=CC(=O)NC1CCN(C(=O)NC2CCCCC2)CC1	10.5
Clc1ccc(OCC2CO2)c(Cl)c1 (stereo not shown)	4.9
N#CN(Cc1ccno1)c1ccc(F)cc1	15.5
C=CC(=O)N1CCCCC1	3.77
C=CC(=O)N1CCC(C)C(OC)C1 (stereo not shown)	7.85
CS(=O)(=O)OCC1(C#N)CCCC1	11.5
CC1(C)CN(c2nccnc2C#N)C1(C)C	0.332
N#Cc1cccc(NCCCC2CCCCO2)n1 (stereo not shown)	8.44
Cl.O=C(CCl)N1CCN(Cc2ccc3c(c2)CCO3)CC1	2.96
COc1ccc(C(C)=CB2OC(C)(C)C(C)(C)O2)cc1	5.19
C=CC(=O)N(C)C1CCS(=O)(=O)CC1	10.1
CC1(C)OB(c2ccc(C(F)(F)F)nc2)OC1(C)C	1.49
CNC(=O)c1cncc(C=CC(=O)N2CCCC(N)C2)c1.Cl (stereo not shown)	9.43
Sc1ncccc1Cl	2.79
COC1(C)CCCN(c2ccc(C#N)nc2)C1 (stereo not shown)	13.8
Cn1nc(C(F)(F)F)cc1B1OC(C)(C)C(C)(C)O1	0.786
Cc1ccc(CNC(=O)CCl)cc1	1
COc1ccc(S(=O)(=O)n2ccc(C)n2)c(C)c1C	6.27
C#CC(=O)c1ccc(C(F)(F)F)cc1	0.878
Cc1ccc(-c2nc(C#N)c(NC3CC3)o2)cc1	5.44
C=CC(=O)N1CCCC(CNC(=O)c2ccccc2)C1 (stereo not shown)	9.05
CN(C)C(=O)Sc1ccc(CO)cc1	5.66
O=S(=O)(C=Cc1ccccc1Cl)Nc1cccnc1	9.53
CN(c1ccccc1)S(=O)(=O)c1ccccc1S(=O)(=O)F	96.6
CCNC(=O)C12CC3CC(CC(Cl)(C3)C1)C2	7.43
C=CC(=O)NC1CC12CCCc1ccccc12 (stereo not shown)	-3.23

SMILES	Inhibition % [%]
C=CC(=O)N1CCC(c2nc(C)c(C)s2)CC1	4.4
C=CC(=O)N1CCc2ccccc2C1CC (stereo not shown)	-1.28
C=CC(=O)N(C)CCN1CCCS1(=O)=O	12.4
O=C(CCl)N(Cc1cccs1)C1CCS(=O)(=O)C1 (stereo not shown)	5.82
CC1CC(N(C)Cc2nc3c(s2)CCCC3)C(=O)O1 (stereo not shown)	8.2
CC1Cc2cc(C(=O)CCl)ccc2N1S(C)(=O)=O (stereo not shown)	6.9
O=C(C=Cc1ccc2ccccc2n1)N1CCCC1CO (stereo not shown)	7.06
CC(NC(=O)c1ccccc1NC(=O)CCl)c1ccccc1 (stereo not shown)	6.77
Cc1cc(NC(=O)CCl)no1	3.42
CCOCCCn1c(S)nc2c(C)cccc2c1=O	5.79
C=CC(=O)N[C@H](C(=O)N1CCCC1)C(C)C	-4.2
C=CC(=O)N1CCC(c2ccco2)CC1	8.73
C=CC(=O)Nc1cc(C)on1	10.6
C=CC(=O)N1CCOCC1c1nc(C)cs1 (stereo not shown)	8.04
CCC(=O)N1CCC(Nc2ccc(C#N)nc2)C1 (stereo not shown)	3.54
O=C(CCl)N1CCC2(CC1)OCCO2	10.3
C=CC(=O)N1CCC(OCc2ccccc2C)CC1	5.28
C=CC(=O)NC[C@H]1CC[C@H](c2ccccc2)O1	2.73
CC1(C)OB(c2ccc(OCCc3ccccn3)cc2)OC1(C)C	-0.0918
CC1(C)OB(c2ccc([N+](=O)[O-])cc2F)OC1(C)C	8.59
CC(O)c1cnc(C2OCCO2)s1 (stereo not shown)	7.39
Cl.O=C(CCl)NCc1ccc(CN2CCCC2)cc1	10.4
C=CC(=O)NCC(C)(C)CC1CCOCC1	3.79
